Reference: the supplement of paper PMC10369915
This is one part of the list. Rule as the data show it: active = 3.2 or more and inactive = the rest. The signal is at background level for most entries.

What was measured:
Assay in all cases: enrichment score (SH2-bound / input frequency) (ratio); bacterial display of known human phosphotyrosine sites (pTyr-Var adds point mutants) read by sequencing; higher = stronger binding; tyrosines were phosphorylated by kinases first
Settings in all cases: peptide library: Human pTyr
[1] = biological target: SHP2 C-SH2 domain E139D
[2] = biological target: SHP2 C-SH2 domain wild-type
[3] = biological target: SHP2 N-SH2 domain L43F
[4] = biological target: SHP2 N-SH2 domain T42A
[5] = biological target: SHP2 N-SH2 domain T52S
[6] = biological target: SHP2 N-SH2 domain wild-type

Measured: enrichment score
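Also: displayed peptides selected on beads carrying the immobilized SH2 domain, with library peptides lacking any tyrosine serving as negative controls.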

FKPEIQVYENIHLAR [LY66F_HUMAN_281]
inactive: [1] 1.13 | [2] 1.18 | [3] 1.05 | [4] 0.911 | [5] 1.07 | [6] 1.63

VTREEPIYIITEAMA [LYN_HUMAN_316_YA]
inactive: [1] 0.727 | [2] 0.781 | [3] 1.26 | [4] 1.29 | [5] 0.919 | [6] 0.856

ENCPDELYDIMKMCW [LYN_HUMAN_473]
inactive: [1] 1.07 | [2] 0.958 | [3] 0.854 | [4] 0.894 | [5] 1.14 | [6] 1.35

IPERDSRYSQPLHEE [M3K5_HUMAN_718]
inactive: [1] 0.731 | [2] 0.734 | [3] 0.904 | [4] 0.721 | [5] 0.887 | [6] 0.862

KLENPLDYGSAWAAA [ANDR_HUMAN_395]
inactive: [1] 0.832 | [2] 0.735 | [3] 0.85 | [4] 0.888 | [5] 0.877 | [6] 1.09

EKIDDPIYGTYYVDH [MAGI2_HUMAN_362]
inactive: [1] 1.29 | [2] 1.16 | [3] 1.08 | [4] 1.27 | [5] 1.34 | [6] 1.06

SQPPYTDYVSTRWYR [MAK_HUMAN_159]
inactive: [1] 1.45 | [2] 1.1 | [3] 1.16 | [4] 1.08 | [5] 1.36 | [6] 1.21

GIQAEPLYRVVSNTI [MAP1A_HUMAN_177]
inactive: [1] 0.545 | [2] 0.499 | [3] 0.584 | [4] 0.481 | [5] 0.531 | [6] 0.477

IDAGCKPYMAPERIN [MAP2K6_HUMAN_219]
inactive: [1] 1.15 | [2] 0.967 | [3] 0.921 | [4] 1.04 | [5] 1.22 | [6] 1.05

SCRPRSEYQPSDAPF [MAP6_HUMAN_143]
inactive: [1] 1.33 | [2] 1.05 | [3] 1.06 | [4] 1.21 | [5] 1.25 | [6] 1.29

ANADGKDYDPVAARQ [MARE1_HUMAN_124_YA]
inactive: [1] 0.698 | [2] 0.531 | [3] 0.908 | [4] 0.624 | [5] 0.787 | [6] 0.575

ANYDGKEYDPVEARQ [MARE2_HUMAN_167]
inactive: [1] 0.585 | [2] 0.782 | [3] 0.563 | [4] 0.598 | [5] 0.637 | [6] 0.713

EEGPTLSYGRDGRSA [MATR3_HUMAN_158]
inactive: [1] 0.693 | [2] 0.575 | [3] 0.6 | [4] 0.557 | [5] 0.535 | [6] 0.541

GYYDRMDYEDDRLRD [MATR3_HUMAN_219]
inactive: [1] 0.887 | [2] 0.786 | [3] 0.877 | [4] 0.65 | [5] 0.652 | [6] 0.747

GAADRMDYEDDRLRD [MATR3_HUMAN_219_YA]
inactive: [1] 0.727 | [2] 0.621 | [3] 0.496 | [4] 0.62 | [5] 1.04 | [6] 0.692

WASKDATYTSARTLL [MCM7_HUMAN_600]
inactive: [1] 0.64 | [2] 0.746 | [3] 0.634 | [4] 0.677 | [5] 0.694 | [6] 0.81

SDEDDEVYQVTVYQA [MDM2_HUMAN_276]
inactive: [1] 1.36 | [2] 1.19 | [3] 1.16 | [4] 1.16 | [5] 1.43 | [6] 1.56

EVAQVTVYQAGESDT [MDM2_HUMAN_281_YA]
inactive: [1] 0.806 | [2] 0.651 | [3] 0.638 | [4] 0.606 | [5] 0.828 | [6] 0.658
